Screen size: about 310,000 compounds; about 2,200 (0.71%) showed an effect of 50% or more. The effect is printed as a negative number. This is one part of the list.
Each compound was assayed against human ether-à-go-go-related gene (hERG) potassium channel (human, UniProt Q12809) (assay: primary screen, population patch clamp on CHO cells stably expressing hERG).
Chain of human ether-à-go-go-related gene (hERG) potassium channel (Q12809 whole entry, looked up): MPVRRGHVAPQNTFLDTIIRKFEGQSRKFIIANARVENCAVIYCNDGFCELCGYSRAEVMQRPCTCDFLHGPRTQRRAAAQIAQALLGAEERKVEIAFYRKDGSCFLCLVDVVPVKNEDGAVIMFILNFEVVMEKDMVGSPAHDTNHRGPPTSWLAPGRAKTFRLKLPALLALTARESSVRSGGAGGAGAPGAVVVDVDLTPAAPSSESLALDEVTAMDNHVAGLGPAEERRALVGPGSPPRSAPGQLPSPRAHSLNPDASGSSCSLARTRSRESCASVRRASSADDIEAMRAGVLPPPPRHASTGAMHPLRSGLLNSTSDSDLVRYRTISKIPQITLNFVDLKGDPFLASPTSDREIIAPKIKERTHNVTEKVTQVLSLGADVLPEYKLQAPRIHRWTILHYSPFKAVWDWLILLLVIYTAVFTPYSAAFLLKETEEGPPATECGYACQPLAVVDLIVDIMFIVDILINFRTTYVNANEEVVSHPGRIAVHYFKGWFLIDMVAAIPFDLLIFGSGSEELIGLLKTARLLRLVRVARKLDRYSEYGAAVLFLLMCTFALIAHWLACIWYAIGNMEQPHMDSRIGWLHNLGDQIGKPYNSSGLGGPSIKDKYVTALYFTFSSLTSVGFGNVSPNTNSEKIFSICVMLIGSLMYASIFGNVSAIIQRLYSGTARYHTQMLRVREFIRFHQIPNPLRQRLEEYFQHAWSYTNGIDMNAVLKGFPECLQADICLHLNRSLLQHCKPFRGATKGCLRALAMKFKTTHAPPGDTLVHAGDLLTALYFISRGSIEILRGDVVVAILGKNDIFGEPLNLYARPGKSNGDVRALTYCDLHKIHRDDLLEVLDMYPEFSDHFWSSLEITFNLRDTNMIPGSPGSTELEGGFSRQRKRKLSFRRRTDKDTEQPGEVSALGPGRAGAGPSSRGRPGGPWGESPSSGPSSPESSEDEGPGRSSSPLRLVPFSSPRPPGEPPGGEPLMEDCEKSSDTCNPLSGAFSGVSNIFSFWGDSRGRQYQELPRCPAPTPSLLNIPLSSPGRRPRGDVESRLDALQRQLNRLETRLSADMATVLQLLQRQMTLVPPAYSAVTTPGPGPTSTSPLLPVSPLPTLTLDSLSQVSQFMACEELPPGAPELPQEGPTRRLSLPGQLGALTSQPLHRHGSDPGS

Structure (SMILES) | hERG current change (%, negative = inhibition) at 1uM [%]
Cc1ccc(C(=O)N2CCC3(CC2)Oc2ccc(F)cc2C(=O)C32CC(c3ccccc3)=NO2)s1 (centres unmarked) | 20.3
O=C(NCC1CCN(c2ccc(S(=O)(=O)N3CCOCC3)cc2)CC1)Nc1ccccc1F | 8.44
O=C(c1ccccc1)c1ccccc1C(=O)c1ccccc1 | 11.9
COc1ccc(OCC(=O)Nc2c3c(nn2-c2ccccc2)CS(=O)(=O)C3)cc1 | 7.69
COc1ccc(C)cc1S(=O)(=O)Nc1cccc(-c2cn3cccnc3n2)c1 | 16.9
Cc1nn(C)cc1C(=O)Nc1c(C)nn(Cc2ccccc2Cl)c1C | 12.4
CC(C)C1C(C#N)=C(N)Oc2n[nH]c(-c3cccs3)c21 (centres unmarked) | 10
O=c1c([N+](=O)[O-])c(O)c2cccc3c2n1CCC3 | 6.23
COc1cccc(C(=O)Nc2cc3c4c(c2)CC(=O)N4CCC3)c1 | 12.5
NC(=O)COc1ccc2c3c(c(=O)oc2c1)CCCCC3 | 8.39
CCOC(=O)Cn1c(=O)oc2cc(S(=O)(=O)Nc3cc(OCC)ccc3OCC)ccc21 | -26.3
CSCCC(NC(=O)CCC(=O)OCC(=O)[C@@]1(O)CCC2[C@@H]3CCC4=CC(=O)C=C[C@]4(C)C3[C@@H](O)C[C@@]21C)C(=O)O (some centres unmarked) | 11.2
O=C(c1ccc([N+](=O)[O-])s1)N1CCN(c2ccccc2)CC1 | -2.79
COc1c(C)cc(Br)cc1C(=O)O | 6.87
O=C(Cc1ccccc1Cl)Nc1cccc(S(=O)(=O)N2CCCCCC2)c1 | 10.2
C[C@@H]1C=C(C(=O)O)O[C@H](OCc2ccc(CO)cc2)C1 | 1.51
N/C(Cn1cncn1)=N\NC(=O)c1ccc(Cl)cc1Cl | 12.1
Cc1cccc(N=Cc2c(O)n(-c3ccccc3C)c(=O)[nH]c2=O)c1 | 12.1
CC(=O)N1c2ccccc2[C@H](C)[C@H]1C | 3.73

Structure (SMILES) | hERG current change (%, negative = inhibition) at 1uM [%]
Cc1cc(C(=O)NCC(c2ccco2)N2CCCC2)c2ccccc2n1 (centres unmarked) | 2.56
NS(=O)(=O)c1ccc(CCNC(=O)c2coc3ccccc3c2=O)cc1 | 14.4
Cc1noc(C)c1S(=O)(=O)N1CCC(C(=O)N(C)Cc2ccccc2)CC1 | -0.487
O=C(NCCCn1ccnc1)Nc1ccc(Cl)cc1 | 2.55
CC(C)Oc1cc(O)c2c(=O)c(-c3ccc(O)cc3)coc2c1 | 12.5
Cc1[nH]c(=S)c(C#N)c(C)c1Cc1ccc(Cl)cc1Cl | 5.41
CC(C)(C)C1CCc2c(sc(NC(=O)c3cccs3)c2C(N)=O)C1 (centres unmarked) | 10
N#CC(NC(=O)OCc1ccccc1)c1ccccc1 (centres unmarked) | 8.92
OCC[C@H]1C[C@H](O)[C@@H](O)[C@@]2(CCc3ccccc3O2)O1 | -8.9
COc1ccc(NC(C)=O)cc1NC(=O)CSc1nnc(-c2ccc(F)cc2)n1N | 4.09
CC1CCCC(C)N1C(=O)COC(=O)Cc1ccc(Cl)cc1 (centres unmarked) | 13.7
Cc1ccc(NC(=O)Nc2ccc3c(c2)CCC3)cc1C | -17.6
COc1ccc(C2CC(O)(c3ccccc3)Oc3cc(OC)c(OC)c(OC)c32)cc1 (centres unmarked) | 14.4
Cc1ccc2cccc(NS(=O)(=O)c3ccccc3)c2n1 | 5.63
COc1cccc(NS(=O)(=O)c2ccc(C)c(C(=O)N3CCCCC3)c2)c1 | 9.36
Cc1ccc(CN2CCN(Cc3nc4c(s3)CCCC4)CC2CCO)cc1 (centres unmarked) | -24.9
CC(C)NC(=O)COc1ccc(Cl)cc1Cl | 6.86
Cc1c2cnn(CC(=O)N3CCC4(CC3)OCCO4)c(=O)c2c(C)n1Cc1ccccc1F | 14.7
O=C1CCCCCN1Sc1ccccc1 | 10.5

Structure (SMILES) | hERG current change (%, negative = inhibition) at 1uM [%]
O=S(=O)(c1ccc(OCc2nc3ccccc3s2)c(Cl)c1)N1CCOCC1 | 12.2
C[C@]12CC[C@@H]3c4ccc(O)cc4CC[C@H]3[C@@H]1CC[C@@H]2OC(=O)CCC1CCCC1 | 16.2
CC(=O)c1ccc(Nc2ncnc3c2oc2ccccc23)cc1 | 10.2
Cc1cccc(-n2nc3c(c2NC(=O)c2ccco2)CS(=O)(=O)C3)c1C | -6.7
CNC(=O)COc1coc(CN2CCN(c3cccc(Cl)c3)CC2)cc1=O | 6.54
COc1ccc(-n2c(COc3cccc4ccccc34)nnc2SCC(=O)NCc2ccco2)cc1 | -9.36
Cc1cc(C)c(S(=O)(=O)N2CCCCCC2)cc1Br | 9.28
CCn1nnnc1NCc1ccc(N2CCCC2)cc1 | 4.26
CCCC(=O)Nc1cc(=O)n(C)c(=O)n1C | 2.02
CCCCN1C(=N)C(CC)(CC)C(=O)NC1=O.Cl | 27.4
COc1ccc(NC(=O)c2oc3ccccc3c2NC(=O)C2CC2)cc1OC | 7.42
Cc1csc(NC(=O)CSc2nnc(NC(=O)NC(C)(C)C)s2)n1 | 3.92
O=C1c2ccccc2C(=O)N1Cc1nc2ccccc2c(=O)n1-c1ccc(Br)cn1 | -0.56
Br.COc1ccc(-c2cn3cc(Cl)ccc3n2)cc1OC | 8.85
CCN(CC)C(=O)C1CCN(Cc2ccc(OCc3ccccc3)cc2)CC1.O=C(O)C(=O)O | -13.3
Cc1ccc[n+](CC(=O)/C=C2\N(C)c3ccccc3C2(C)C)c1.[Cl-] | 10.4
O=C(NCCCN1CCCC1=O)c1cccc(C(F)(F)F)c1 | 5.99
COC(=O)C1=C(c2ccc(OC)c(OC)c2)C[C@@H]2CC[C@H]1N2C(=O)N1CCCCC1 | 11

— publication PMC4336329 (PLoS ONE, 2015)
